Measurements from PubChem BioAssay (NCATS).
“And” between values parts separate entries of the source, which are not always exact repeats. Identical values can stand only once. This list was built around the results that the source calls inconclusive (neither active nor inactive); the mix of calls is not that of the screen. A call without a number means that no potency is given here. For part of these data: Potencies of inconclusive entries are doubtful fits and often do not repeat. The source made the active and inactive calls. Unless noted, the call rests on the fitted dose curve; in most records, active means well fitted curve in the direction sought with a large enough effect; inconclusive means small, poorly fitted or top-dose-only effect, or another doubt; inactive means no such curve, though single readings can be large; an effect the other way counts as inactive or inconclusive.

How the values were obtained:
[1] = P-glycoprotein substrates identified in KB-8-5-11 adenocarcinoma cell line, qHTS therapeutic library screen (AID 1346987); conditions: activity change, negative = cytotoxicity: at 44.5 µM (top of the series); further: nearly all actives have a fitted effect of over 65% in size
In short: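 KB-8-5-11: colchicine-selected sub-line of KB-3-1 over-expressing P-gp; assay medium lacked colchicine. 72 h drug exposure at 37 degree C, CellTiter-Glo.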

[2] = system: Zika virus NS2B-NS3 protease (unlinked complex); test: Primary screen GU Rhodamine qHTS for Zika virus inhibitors: Unlinked NS2B-NS3 protease assay (AID 1347159); conditions: Recombinant ZIKV NS2B-NS3 protease, Rhodamine110 substrate fluorescence; activity change, negative = inhibition: at 107 µM (top of the series); further: potency means the concentration at half of the fitted maximal effect; nearly all actives have a fitted effect of over 60% in size
In short: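 Noncovalent NS2B hydrophilic domain–NS3 protease domain complex (25 nM) preincubated 15 min at room temperature with compounds (up to 114 microM) in 10 mM Tris-HCl pH 8.0, 0.01% Tween 20; 1.5 microM Rhodamine110 substrate added, fluorescence change over 15 min fitted to Hill equation.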

[3] = system: Zika virus NS2B-NS3 protease (linked construct); test: Primary screen NINDS Rhodamine qHTS for Zika virus inhibitors (AID 1347160); further: nearly all actives have a fitted effect of over 55% in size; further: potency means the concentration at half of the fitted maximal effect
In short: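 Purified linked NS2B-NS3 protease (NS2B hydrophilic domain joined to NS3 protease by flexible linker), 25 nM in 10 mM Tris-HCl pH 8.0, 0.01% Tween 20. Compounds titrated, 15 min preincubation at room temperature; 1.5 microM Rhodamine110 substrate, FITC fluorescence change over 15 min.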

[4] = qHTS to identify inhibitors of the type 1 interferon - major histocompatibility complex class I in skeletal muscle: primary screen against the NCATS Mechanism Interrogation Plate v5.0 (MIPE) Libary (AID 1347411); conditions: iHSKM cells + IFN-b, HiBiT-tagged MHC-I luminescence, 24 h; activity change, negative = inhibition: at 45.8 µM (top of the series) unless noted; further: nearly all actives have a fitted effect of over 65% in size
In short: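 Immortalized human C25cl48 myoblasts with HiBit knocked into endogenous HLA-B*08:01 were stimulated with 4.0 ng/ml IFN-beta and exposed to compounds (11-point 1:3 titration, top 46 uM final) for 24 hrs at 37 C; HiBiT lytic luminescence measured.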

[5] = molecular target: Phospholipid hydroperoxide glutathione peroxidase GPX4 (Homo sapiens) (UniProt P36969); test: Primary qHTS Assay for Inhibitors of Recombinant Selenoprotein Glutathione Peroxidase 4 (GPX4) (AID 1845192); conditions: activity change, negative = inhibition: at 50 µM (top of the series) unless noted; further: potency means the concentration at half of the fitted maximal effect; nearly all actives have a fitted effect of over 65% in size
Sequence of UniProt P36969 (P36969 whole entry, looked up): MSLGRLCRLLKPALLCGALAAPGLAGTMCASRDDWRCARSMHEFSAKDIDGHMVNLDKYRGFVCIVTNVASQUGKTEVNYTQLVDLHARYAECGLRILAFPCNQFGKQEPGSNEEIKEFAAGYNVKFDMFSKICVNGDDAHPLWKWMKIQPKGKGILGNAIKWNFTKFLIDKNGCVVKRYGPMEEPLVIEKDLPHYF
In short: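 GR-coupled assay: recombinant GPX4 preincubated 30 min with compound at room temperature; final 200 nM GPX4, 1 mM GSH, 0.5 mM cumene hydroperoxide, 0.5 mM NADPH, 100 nM GR, 0.01% BSA, pH 7.5 Tris. NADPH fluorescence (340/450 nm) read at 0 and 15 min.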

[6] = system: Es-2; test: Primary qHTS to identify gynecologic anti-cancer compounds using libraries of approved drugs and bioactive compounds (AID 1345084); conditions: Gynecologic cancer cell panel viability, ATPlite luminescence, 48 h; series mostly up to 57.5 µM; further: nearly all actives have a fitted effect of over 55% in size; further: potency means the concentration at half of the fitted maximal effect
In short: (§1)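 Luminescence from the ATPlite ATP-monitoring reagent indicates viable cell number; lower signal means cytotoxicity. Cells received compound 16 h after seeding and were exposed for 48 h across five concentrations.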

[7] = system: SKOV3; test: as above; conditions: Gynecologic cancer cell panel viability, ATPlite luminescence, 48 h; series mostly up to 57.5 µM
In short: as §1

[8] = system: Tov-21-G; test: as above; conditions: Gynecologic cancer cell panel viability, ATPlite luminescence, 48 h; series mostly up to 57.5 µM
In short: as §1

[9] = Primary fluorescence-based thiol-reactive (MSTI) qHTS assay for identification of artifact compounds. (AID 1845221);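 further: potency means the concentration at half of the fitted maximal effect; thiol-reactive compounds lower the probe fluorescence signal; nearly all actives have a fitted effect of over 65% in size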
In short: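 Compounds were incubated 1 h at room temperature in the dark with the MSTI probe (4 uM) in PBS pH 7.4, 2% DMSO. Signals were normalized between Acetyl-MSTI and MSTI.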

[10] = Primary redox qHTS assay for identification of artifact compounds. (AID 1845223); further: potency means the concentration at half of the fitted maximal effect
In short: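 Amplex Red (25 uM) and HRP (250 mU/mL) in HBSS, with compounds for 15 min, then 250 uM DTT for 30 min, room temperature, dark. Fluorescence 525/598 nm read; normalized to DMSO and 10 uM DA3003; Hill fit.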

[11] = molecular target: Cytochrome P450 2C9 (Homo sapiens) (UniProt P11712); test: Cytochrome P450 family 2 subfamily C member 9 (CYP2C9) small molecule antagonists: luciferase biochemical (cell-free) qHTS assay (AID 1645842; active means well fitted curve in the direction sought with a large enough effect in the repeat runs; inconclusive means weak or mixed curves; inactive means no such curve, though single readings can be large; an effect the other way counts as inactive or inconclusive; further: nearly all actives have a fitted effect of over 55% in size; further: potency means the concentration at half of the fitted maximal effect)
Sequence of UniProt P11712 (P11712 whole entry, looked up): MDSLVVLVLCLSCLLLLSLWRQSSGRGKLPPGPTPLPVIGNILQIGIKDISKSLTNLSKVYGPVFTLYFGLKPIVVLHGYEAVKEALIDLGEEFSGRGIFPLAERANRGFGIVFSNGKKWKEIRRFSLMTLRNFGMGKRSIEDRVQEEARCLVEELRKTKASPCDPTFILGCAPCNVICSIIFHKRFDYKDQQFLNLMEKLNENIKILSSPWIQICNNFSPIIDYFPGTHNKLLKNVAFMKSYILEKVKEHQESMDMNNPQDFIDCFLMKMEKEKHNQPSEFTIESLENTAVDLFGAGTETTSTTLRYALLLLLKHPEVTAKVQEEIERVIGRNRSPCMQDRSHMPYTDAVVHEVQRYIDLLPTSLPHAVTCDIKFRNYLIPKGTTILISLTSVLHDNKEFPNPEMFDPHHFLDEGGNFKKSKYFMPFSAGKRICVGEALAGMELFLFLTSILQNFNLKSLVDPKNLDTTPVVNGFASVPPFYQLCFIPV
In short: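 Luminescence, after 20 min with luciferin detection reagent, reflected CYP2C9 turnover during a 1 h NADPH-driven reaction at 37C. Enzyme-substrate mix contained 0.4% bovine serum albumin and was preincubated with compound 10 min at room temperature.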

[12] = Primary qHTS for inhibitors of nuclear receptor binding SET domain protein 2 (NSD2) in an isogenic RCH-ACV NSD2 p.E1099K mutant (9B) (AID 1645876); conditions: activity change, negative = viability loss: at 44.9 µM (top of the series) unless noted; further: potency means the concentration at half of the fitted maximal effect; nearly all actives have a fitted effect of over 70% in size
[13] = qHTS Assay for Identifying Gametocytocidal Compounds (AID 743244);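 further: actives lower the fluorescent signal which means gametocytes are killed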; conditions: P. falciparum 3D7 stage III-V gametocytes, alamarBlue, 72 h; max response: hits give low values
In short: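 Compounds are pinned into medium, gametocytes (stage III–V, 3D7, 20,000 cells/well) added, and plates held 72 h at 37 °C in 5% CO2. AlamarBlue follows for 24 h before fluorescence reading.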

[14] = qHTS of pediatric cancer cell lines to identify multiple opportunities for drug repurposing: Primary screen for BT-12 cells (AID 1347101); further: nearly all actives have a fitted effect of over 25% in size
In short: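 Cells (500-1,000/well) rested 5 h, then received compounds for 48 h; metabolically active cells were measured by CellTiter-Glo luminescence. Final concentrations spanned up to 46 µM (MIPE, 11-point) or 0.59 nM-46 µM (NPC, 8-point) in primary screens, 11-point in follow-ups.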

[15] = Primary qHTS for inhibitors of nuclear receptor binding SET domain protein 2 (NSD2) in an RCH-ACV wild type WT cells (2C) (AID 1645877); conditions: activity change, negative = cell killing: at 44.9 µM (top of the series) unless noted; further: nearly all actives have a fitted effect of over 70% in size
[16] = P-glycoprotein substrates identified in KB-3-1 adenocarcinoma cell line, qHTS therapeutic library screen (AID 1346986); further: nearly all actives have a fitted effect of over 60% in size
In short: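 Compounds were tested in dose-response against KB-3-1 and KB-8-5-11 cells at 37 degree C for 72 h, and viability was measured by luminescence. AC50 values came from curve fitting with class-based activity calls.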

[17] = molecular target: Cytochrome P450 3A4 (Homo sapiens) (UniProt P08684); test: Cytochrome P450 family 3 subfamily A member 4 (CYP3A4) small molecule antagonists: luciferase qHTS assay (AID 1645841; active means well fitted curve in the direction sought with a large enough effect in the repeat runs; inconclusive means weak or mixed curves; inactive means no such curve, though single readings can be large; an effect the other way counts as inactive or inconclusive; further: potency means the concentration at half of the fitted maximal effect; nearly all actives have a fitted effect of over 45% in size)
Sequence of UniProt P08684 (P08684 whole entry, looked up): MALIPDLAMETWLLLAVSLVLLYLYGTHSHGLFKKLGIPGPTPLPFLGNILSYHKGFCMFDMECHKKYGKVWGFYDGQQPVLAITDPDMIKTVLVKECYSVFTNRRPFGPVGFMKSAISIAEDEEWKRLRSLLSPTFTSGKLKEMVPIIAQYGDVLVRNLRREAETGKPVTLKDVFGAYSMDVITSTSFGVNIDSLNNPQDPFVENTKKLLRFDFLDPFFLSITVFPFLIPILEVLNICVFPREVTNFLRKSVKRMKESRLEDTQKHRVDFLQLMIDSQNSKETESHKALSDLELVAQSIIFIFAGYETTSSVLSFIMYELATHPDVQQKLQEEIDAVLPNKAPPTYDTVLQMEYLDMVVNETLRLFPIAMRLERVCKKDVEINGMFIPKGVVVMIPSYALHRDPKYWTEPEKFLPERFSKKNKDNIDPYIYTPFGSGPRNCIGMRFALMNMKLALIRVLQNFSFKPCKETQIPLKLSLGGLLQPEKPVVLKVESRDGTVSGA
In short: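 P450-Glo CYP3A4 enzyme with proluciferin substrate preincubated 10 min with compound at room temperature, then NADPH regeneration 1 h. Luciferin detection reagent added for 20 min; luminescence recorded. Ketoconazole positive control.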

[18] = system: Nanoluciferase (engineered Oplophorus gracilirostris luciferase); test: Primary Nanoluciferase (NLuc) qHTS assay for identification of artifact compounds. (AID 1845222); further: potency means the concentration at half of the fitted maximal effect
In short: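 Diluted conditioned medium from NLuc-expressing S16 cells treated with compounds for 15 min at room temperature, then Nano-Glo substrate added; luminescence read after 5 min. Percent inhibition versus no-enzyme and DMSO controls fitted to 4-parameter Hill equation.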
Tags describe the fitted curve by direction and shape.

## CC(C)(C)C(=O)CN1C(=O)[C@H](NC(=O)Nc2cccc(C(=O)O)c2)CN(C2CCCCC2)c2ccccc21
[1]
  Potency: inactive
[2]
  Potency: active: 10 µM
[3]
  Potency: inconclusive: 3.16 µM [inhibitor, partial curve]
[4]
  Potency: inactive
[5]
  Potency: inconclusive: 28.6 µM [inhibitor, partial curve, poor fit] and inconclusive: 32.1 µM [inhibitor, single point]
[6]
  Potency: inactive

## COC(=O)C[C@H]1C(C)(C)[C@H](OC(=O)C(C)C)C2CC3=C4CC(=O)O[C@@H](c5ccoc5)[C@]4(C)CCC3[C@@]1(C)C2=O (stereo partly specified)
[3]
  Potency: inactive
[6]
  Potency: inactive
[7]
  Potency: inactive
[8]
  Potency: inactive

## O=C(OC[C@H]1O[C@@H](Oc2ccccc2CO)[C@H](O)[C@@H](O)[C@@H]1O)c1ccccc1
[2]
  Potency: inconclusive: 31.6 µM [inhibitor, partial curve, poor fit]
[3]
  Potency: inconclusive: 12.6 µM [inhibitor, partial curve, poor fit]
[9]
  Potency: active: 10.4 µM
[10]
  Potency: inconclusive: 23.3 µM [activator, partial curve, poor fit]
[6]
  Potency: inactive

## CC(=O)N1CCN([C@H]2CCN(C(=O)N(C)[C@H](C)c3cc(C(F)(F)F)cc(C(F)(F)F)c3)[C@@H](c3ccc(F)cc3C)C2)CC1
[11]
  Potency: inconclusive: 9.52 µM [inhibitor, partial curve]
[12]
  Potency: inconclusive: 18.3 µM [inhibitor, single point]
[10]
  Potency: inconclusive: 2.99 µM [activator, full curve, poor fit]
[6]
  Potency: inactive
[7]
  Potency: inactive

## C[C@H](NC(CCc1ccccc1)C(=O)O)C(=O)N1CCC[C@H]1C(=O)O (stereo partly specified)
[13]
  max response: inactive: 7.34%
[14]
  Potency: inactive
[15]
  Potency: inactive
[6]
  Potency: inconclusive: 3.16 µM
[8]
  Potency: inactive

## CCc1c(CC(N)=O)c2cc(OCCCP(=O)(O)O)ccc2n1Cc1ccccc1
[16]
  Potency: inactive
[17]
  Potency: inconclusive: 37.9 µM [falling, single point]
[11]
  Potency: inactive
[9]
  Potency: inconclusive: 2.38 µM [inhibitor, full curve]
[10]
  Potency: inconclusive: 37.7 µM [activator, partial curve, poor fit]
[6]
  Potency: inactive
[7]
  Potency: inconclusive: 39.8 µM [rising, single point]

## CC1(C)C(=O)C(C)(C)c2cc(C(=O)Nc3ccc(C(=O)O)cc3)ccc21
[2]
  Potency: inconclusive: 63.1 µM [inhibitor, partial curve, poor fit]
[15]
  Potency: inactive
[18]
  Potency: inconclusive: 16.9 µM [inhibitor, single point]
[6]
  Potency: inactive
